Screen size: about 43,000 compounds; about 200 (0.47%) were called active. Roughly 12% stayed inconclusive and do not appear here. The call rests on the fitted dose curve; in most records, active means well fitted cell-killing curve with a large enough effect; inconclusive means small, poorly fitted or top-dose-only effect, or effect the other way; inactive means flat fitted curve, though single readings scatter. Some of the results follow.
assay: Cell viability qHTS assay in S16 Pmp22-F2sN cells; conditions: S16 Pmp22-F2sN Schwann cells (luciferase reporters placed in the Pmp22 gene) viability, CellTiter-Glo, 24 h; series mostly up to 57.5 µM; activity change, negative = cytotoxicity: at the top concentration; further: nearly all actives have a fitted effect of over 65% in size
Summary of the method: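 Seed 500-1,000 S16 Pmp22-F2sN cells per well in phenol-red-free DMEM with 10% heat-inactivated FBS; pin-add 23 nL compound; incubate 24 h at 37C; add CellTiter-Glo, wait 15 min protected from light; read luminescence.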
On the % scale 0 is the no-effect control and ±100 the full control effect.

SMILES	activity change, negative = cytotoxicity
COc1cccc(Cc2nc3ccccc3nc2SCC(=O)Nc2cccc(C)c2)c1	inactive: 1.32%
Cc1ccc(Cn2cc(S(=O)(=O)c3cccc(C)c3)c(=O)c3cc(F)c(N4CCOCC4)cc32)cc1	inactive: -9.1%
O=C(Nc1cc(-c2ccccc2)sc1C(=O)O)c1cccc(F)c1	inactive: -4.82%
COc1ccc(CNC(=O)c2sc3nc4n(c(=O)c3c2C)CCCC4)cc1	inactive: 3.01%
O=C(Cn1c(=O)n(Cc2nc(-c3ccccc3)no2)c(=O)c2cc3c(cc21)OCO3)Nc1ccccc1	inactive: -10.6%
CCC(C)n1c(=O)c2sccc2n2c(CCCC(=O)N3CCN(c4ccccc4)CC3)nnc12 (configuration not stated)	inactive: 9.93%
COC(=O)c1cc(Nc2nc3ccccc3nc2NS(=O)(=O)c2ccc(C)cc2)ccc1Cl	inactive: -8.73%
COc1ccc2c(c1)CCc1c(C(=O)Nc3cc(OC)c(Cl)cc3OC)noc1-2	inactive: 2.44%
O=C(Cc1ccccc1)Nc1sc2c(c1C(=O)Nc1ccccc1Cl)CCCCC2	inactive: 10.6%
CCOC(=O)C1CCCN(S(=O)(=O)c2cc(-c3cc(C)no3)ccc2OC)C1 (configuration not stated)	inactive: -10.4%
CC(C)CC(=O)Nc1ccc2nc(SCC(=O)N3CCc4ccccc43)sc2c1	inactive: 12.7%
Cc1ccc(CN(C(=O)c2ccc(C(C)(C)C)cc2)c2ccccn2)o1	inactive: 11.4%
COc1ccccc1NC(=O)CSc1ncc2c(n1)-c1ccccc1N(Cc1ccccc1C)S2(=O)=O	inactive: -4.82%
CCn1ccc2cc(S(=O)(=O)N3CCCN(C(=O)Nc4ccccc4F)CC3)ccc21	inactive: 15.1%
COc1cccc(Cn2c(SCC(=O)N3CCN(c4ccc(F)cc4)CC3)nc3ccccc32)c1	inactive: 8.09%
O=C(CSc1nnc(-c2ccc3c(c2)OCO3)o1)Oc1ccccc1	inactive: 16.3%
O=C(COC(=O)c1cc(-c2cccs2)nc2ccccc12)c1ccc(F)cc1	inactive: 0.22%
CCc1cccc2sc(N3CCN(C(=O)C4CC4)CC3)nc12	inactive: 2.18%
Cc1ccc2cccc(NC(=O)c3cccc4ccccc34)c2n1	inactive: -12.8%
CCCCNC(=O)CSc1nc2cc3c(cc2c(=O)n1CCCC(=O)NCc1ccc2c(c1)OCO2)OCO3	inactive: -13.4%
CC(C)(C)OC(=O)N1CCC(c2c(C(=O)N3CCc4ccccc4C3)cnn2-c2ccc(Cl)cc2)CC1	inactive: -24.8%

SMILES	activity change, negative = cytotoxicity
CCOc1ccccc1C(=O)N(Cc1ccc(N(C)C)cc1)CC1CCCO1 (configuration not stated)	inactive: 12.6%
CCS(=O)(=O)Nc1cc(-c2cn3ccc(C)cc3n2)ccc1C	inactive: -1.45%
Cc1ccc(-c2noc(CN(C3CCCCC3)S(=O)(=O)c3ccc(Cl)cc3)n2)cc1	inactive: 8.71%
Cc1ccc(CNc2ncnc3c2c(-c2ccccc2)cn3-c2cccc(Cl)c2)cc1	inactive: 22.1%
COc1ccc(-c2nc3n(n2)C(c2ccccc2F)C(C(=O)Nc2cccnc2)=C(C)N3)cc1OC (configuration not stated)	inactive: -0.383%
Cc1cccc(-n2c(=O)c3c(c4cc(C)ccc4n3C)n(CC(=O)Nc3ccccc3C(F)(F)F)c2=O)c1	inactive: 10.1%
COCCCNC(=O)c1sc2ncccc2c1-n1cccc1	inactive: -2.6%
COc1ccc(C2CC(=O)c3c([nH]c(C(=O)OC4CCC(C)CC4)c3C)C2)cc1OC (configuration not stated)	inactive: -1.18%
O=C(Nc1ccc(F)c(Cl)c1)N1CCN2CCCCC2C1 (configuration not stated)	inactive: -2.34%
CCCCN(C(=O)c1cccc(S(=O)(=O)N2CCCCC2)c1)C1CCS(=O)(=O)C1 (configuration not stated)	inactive: -9%
COc1ccc(-c2nc(CSCC(=O)NCCc3ccc(C)cc3)c(C)o2)cc1OC	inactive: 0.0735%
COC(=O)c1cc2occc2n1CC(=O)Nc1cccc(SC)c1	inactive: 1.89%
CN(C(=O)CSc1nc2ccccc2n1CC(=O)NCc1ccc(F)cc1)c1ccc(F)cc1	inactive: -12%
CCOC(=O)Cn1cc2c(c1-c1ccc(Cl)cc1)c(=O)n(C)c(=O)n2C	inactive: -0.0933%
CCc1noc2nc(C)n(CC(=O)O)c(=O)c12	inactive: 13.3%
Cc1c(C(=O)NCc2ccc(Cl)cc2)sc2nc3n(c(=O)c12)CCCC3	inactive: -25.8%
CCOc1ccc(CNC(=O)c2ccc(NC(=O)c3nsc4ccccc34)cc2)cc1	inactive: -4.76%
CCCCN(Cc1ccccc1)S(=O)(=O)c1ccc2c(c1)CC(C)N2C(=O)CC (configuration not stated)	inactive: -25.2%
COc1ccccc1Cc1nc2ccccc2nc1SCC(=O)NCCc1ccccc1	inactive: 23.8%
CCN(CC)CCCNC(=O)c1c(C)oc2ncnc(N3CCOCC3)c12	inactive: -4.56%
CCC(=O)Nc1sc2c(c1C(=O)Nc1ccccc1C)CCC(C)C2 (configuration not stated)	inactive: -21.7%

SMILES	activity change, negative = cytotoxicity
Cn1c(=O)c2sccc2n2c(CCC(=O)N3CCN(c4ccccc4)CC3)nnc12	inactive: 1.73%
Cc1ccc(-n2nc3ccc(NC(=O)c4cc5ccccc5o4)cc3n2)cc1	inactive: 10.8%
COC(=O)c1ccccc1NC(=O)c1noc2c1CSc1ccccc1-2	inactive: 2.36%
COc1ccc2nc(NC(=O)c3ccc(S(=O)(=O)N4CCC(C)CC4)cc3)sc2c1	inactive: 1.72%
CCOC(=O)c1cccc(NC(=O)NCCc2c(C)nn(C)c2C)c1	inactive: -0.0237%
CCC(Cc1ccccc1)NC(=O)c1oc(=O)c2ccccc2c1-c1ccccc1 (configuration not stated)	inactive: 1.32%
CC(C)C(=O)Nc1ccc2nc(SCC(=O)N3CCOCC3)sc2c1	inactive: 2.76%
Cc1ccc(C)n1-c1nnc(N2CCC(C(=O)NCc3ccc(F)cc3)CC2)s1	inactive: 0.737%
CCOC(=O)c1c(N)n(-c2ccccc2CC)c2nc3ccccc3nc12	inactive: -14.3%
CCOc1ccc(CNC(=O)CCC(=O)N2CC3CCCN3c3ccccc32)cc1 (configuration not stated)	inactive: 3.38%
COc1ccc(Cl)cc1NC(=O)c1cc(S(=O)(=O)N2CCC(C)CC2)cn1C	inactive: -10.7%
CCN1CCN(C(c2cccc(F)c2)c2c(O)cc(C)n(CCOC)c2=O)CC1 (configuration not stated)	inactive: 4.05%
CCc1nc2cccnc2n1-c1ccc(CC(=O)Nc2ccccc2Cl)cc1	inactive: -15.1%
Cc1cccc(NC(=O)CSc2nc3c(oc4ccccc43)c(=O)n2Cc2ccco2)c1	inactive: 0.472%
O=S(=O)(c1ccc(Br)cc1)c1nnn2c1nc(NC1CCCCCC1)c1sccc12	inactive: 6.43%
Cc1ccc(N2CC(c3nnc(NC(=O)c4ccco4)s3)CC2=O)cc1Cl (configuration not stated)	inactive: -9.94%
COc1cc(Cl)c(C)cc1NC(=O)CCn1c(=O)c2cccn2c2cccnc21	inactive: 18.3%
COc1cccc(CNC(=O)C2CCN(S(=O)(=O)c3ccc4c(ccn4C)c3)CC2)c1	inactive: -5.8%
CSc1ccc(C2c3[nH]c4ccccc4c3CCN2C(=O)CCc2ccccc2)cc1 (configuration not stated)	inactive: 0.108%
Cc1cccc(CCNC(=O)CCS(=O)(=O)c2cc3c(cc2Cl)NC(=O)CO3)c1	inactive: 0.461%
